Consider 88 compounds from article PMC4336329 (PLoS ONE, 2015).

In all, about 310,000 compounds went through this assay and about 2,200 (0.71%) showed an effect of 50% or more. The effect is printed as a negative number. The list shows a part of the results.

The target of the experiment is human ether-à-go-go-related gene (hERG) potassium channel (human, UniProt Q12809). Put plainly: primary screen, population patch clamp on CHO cells stably expressing hERG.
Sequence of human ether-à-go-go-related gene (hERG) potassium channel (Q12809 whole entry, looked up): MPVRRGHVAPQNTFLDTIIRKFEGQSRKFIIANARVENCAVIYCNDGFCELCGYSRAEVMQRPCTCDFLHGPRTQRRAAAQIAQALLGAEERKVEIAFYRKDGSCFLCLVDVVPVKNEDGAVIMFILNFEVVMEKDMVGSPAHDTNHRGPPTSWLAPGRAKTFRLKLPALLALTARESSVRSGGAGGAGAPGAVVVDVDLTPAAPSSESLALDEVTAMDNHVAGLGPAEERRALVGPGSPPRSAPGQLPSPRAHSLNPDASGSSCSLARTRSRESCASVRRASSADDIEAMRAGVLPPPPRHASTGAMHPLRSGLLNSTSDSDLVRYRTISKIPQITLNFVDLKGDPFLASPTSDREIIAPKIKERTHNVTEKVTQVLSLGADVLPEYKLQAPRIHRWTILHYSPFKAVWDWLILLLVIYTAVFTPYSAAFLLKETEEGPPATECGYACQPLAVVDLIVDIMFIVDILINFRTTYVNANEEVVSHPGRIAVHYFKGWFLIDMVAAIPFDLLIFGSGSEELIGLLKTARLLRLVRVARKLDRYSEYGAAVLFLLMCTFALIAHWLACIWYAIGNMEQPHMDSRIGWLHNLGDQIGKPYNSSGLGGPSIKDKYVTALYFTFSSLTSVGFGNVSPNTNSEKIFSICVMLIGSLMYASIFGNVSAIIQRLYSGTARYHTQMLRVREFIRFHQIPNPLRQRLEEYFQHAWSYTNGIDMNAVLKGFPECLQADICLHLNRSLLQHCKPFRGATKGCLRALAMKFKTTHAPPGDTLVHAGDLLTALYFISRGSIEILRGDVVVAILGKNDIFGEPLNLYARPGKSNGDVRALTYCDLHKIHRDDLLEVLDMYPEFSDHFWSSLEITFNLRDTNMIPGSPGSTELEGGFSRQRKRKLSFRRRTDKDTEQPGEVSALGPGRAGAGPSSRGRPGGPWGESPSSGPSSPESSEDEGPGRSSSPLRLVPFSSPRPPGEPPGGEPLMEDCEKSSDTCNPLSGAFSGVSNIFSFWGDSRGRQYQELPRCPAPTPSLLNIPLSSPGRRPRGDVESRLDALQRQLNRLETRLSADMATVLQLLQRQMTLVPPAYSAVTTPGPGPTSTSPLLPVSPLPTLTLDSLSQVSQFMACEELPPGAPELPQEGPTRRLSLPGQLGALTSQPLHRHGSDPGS
In the case of `Fc1cccc(/C=N/Nc2nncc3ccccc23)c1`, the “hERG current change (%, negative = inhibition) at 1uM” value is listed as 7.89%.
`COCC(C)NC(=O)C(C)N1c2cccc3cccc(c23)S1(=O)=O` (stereo not shown): the “hERG current change (%, negative = inhibition) at 1uM” value is on record as 14.7%.
Take `CC(=O)Nc1cccc(NC(=O)C(C)N2c3cccc4cccc(c34)S2(=O)=O)c1` (stereo not shown): the “hERG current change (%, negative = inhibition) at 1uM” value is 8.91%.
In the case of `Cc1ccc(NC(=S)N(CCN(C)C)C(C)c2ccco2)cc1C` (stereo not shown), the “hERG current change (%, negative = inhibition) at 1uM” value was -0.396%.
Consider `COc1ccc(CCNC(=O)CCNS(=O)(=O)c2cccc3nsnc23)cc1OC`, for which the “hERG current change (%, negative = inhibition) at 1uM” value was found to be 11.2%.
As to `COc1cc(C2N(c3ccccc3)CCN2c2ccccc2)ccc1OC(C)=O`, the “hERG current change (%, negative = inhibition) at 1uM” value came out at 9.04%.
Consider `CCC(C)NC(=O)C1CCCN1S(=O)(=O)c1ccc(Cl)cc1` (stereo not shown), for which the “hERG current change (%, negative = inhibition) at 1uM” value came to 12.8%.
`Clc1ccc(Cn2nnc(-c3ccc(N4CCOCC4)cc3)n2)cc1`: the “hERG current change (%, negative = inhibition) at 1uM” value was found to be 12.9%.
For the compound `COc1ccc(C[C@H]2NC[C@H](O)[C@H]2OC(C)=O)cc1`, the “hERG current change (%, negative = inhibition) at 1uM” value stood at 9.27%.
Then `C=CCN(c1ccc(OC)cc1)S(=O)(=O)c1ccc(Cl)c(C(=O)OCC(=O)NC2CC2)c1`, with 8.54%; and `O=C(CSc1cn(CCNC(=O)c2cccs2)c2ccccc12)NC1CCCC1`, with -9.09%; and `Cc1ccc(C)c(S(=O)(=O)NCCC(=O)N2CCCC(C(N)=O)C2)c1` (stereo not shown), with 1.64%.
Then `O=C1C(C=NCCN2CCOCC2)=C(O)c2ccccc21`, with -0.268%; and `CC(C)Oc1ccc(C(=O)OC(C)C(=O)Nc2nc(-c3cccc([N+](=O)[O-])c3)cs2)cc1` (stereo not shown), with 7.68%.
For `CCCCCCn1c(NCC)nc2c1c(=O)n(C)c(=O)n2C`, the “hERG current change (%, negative = inhibition) at 1uM” value is 7.77%.
In the case of `NNc1nc(Nc2ccccc2)nc(Nc2ccccc2)n1`, the “hERG current change (%, negative = inhibition) at 1uM” value came to 12.6%.
With `CCCC(=O)NCCc1cc2c(C)ccc(C)c2[nH]c1=O`, the “hERG current change (%, negative = inhibition) at 1uM” value is reported as 10.2%.
Turning to `CCCc1ccc(C(=O)N2CCN(c3ccccc3OCC)CC2)cc1`, the “hERG current change (%, negative = inhibition) at 1uM” value is -15.3%.
`N/C(=N\OC(=O)C1CC1)c1ccc([N+](=O)[O-])s1`: the “hERG current change (%, negative = inhibition) at 1uM” value was 12%.
Take `O=C(COc1cc2oc(=O)c3c(c2cc1Cl)CCC3)NCCCn1ccnc1`: the “hERG current change (%, negative = inhibition) at 1uM” value is recorded as 6.75%.
On to `Cc1ccccc1-n1nnnc1SCc1ncc(-c2ccccc2)o1`, for which the “hERG current change (%, negative = inhibition) at 1uM” value came out at 10.5%.
`CCCC(C)NC(=O)COC(=O)c1cc(Br)c(Br)s1` (stereo not shown): the “hERG current change (%, negative = inhibition) at 1uM” value came out at 3.39%.
Turning to `Cc1nc2sccn2c(=O)c1S(=O)(=O)NCC1CCN(Cc2ccccc2Cl)CC1`, the “hERG current change (%, negative = inhibition) at 1uM” value was determined as 15%.
On to `CC(C)C(NC(=O)c1ccc(C(C)(C)C)cc1)C(=O)OCC(=O)NC(=O)Cc1ccccc1` (stereo not shown), for which the “hERG current change (%, negative = inhibition) at 1uM” value stood at 5.68%.
In the case of `Cc1cc(NN)nc(NS(=O)(=O)c2ccc(Cl)cc2)n1`, the “hERG current change (%, negative = inhibition) at 1uM” value turned out to be 7.56%.
As to `Cc1cccc2cc(/C=N/NC(=O)CN3CCOCC3)c(Cl)nc12`, the “hERG current change (%, negative = inhibition) at 1uM” value is 4.4%.
Then `COc1ccc(S(=O)(=O)N2CCCOC2CNC(=O)C(=O)NCc2ccncc2)cc1` (stereo not shown), with 7.04%.
With `O=C(NC(Cc1ccccc1)C(=O)OCC(=O)N1CCc2ccccc21)c1ccco1` (stereo not shown), the “hERG current change (%, negative = inhibition) at 1uM” value was determined as 8.6%.
Consider `O=C(O)c1cccc(N/N=C/c2sc(N3CCOCC3)nc2-c2ccccc2)c1`, for which the “hERG current change (%, negative = inhibition) at 1uM” value is on record as 4.07%.
Then `CCS(=O)(=O)n1nc(-c2ccco2)nc1N`, with 18.2%; and `Fc1cccc(C2NCCc3[nH]cnc32)c1` (stereo not shown), with 10.6%; and `O=[N+]([O-])c1cccc(/C=N/n2c(COc3ccccc3)n[nH]c2=S)c1`, with -7.78%.
Regarding `Cc1ccc(NC(=O)c2ccc(OCC3CCCO3)cc2)nc1` (stereo not shown), the “hERG current change (%, negative = inhibition) at 1uM” value came out at 7.05%.
Then `CC(=O)c1ccc(N2CCN(S(=O)(=O)c3ccc(-c4cc(C)no4)s3)CC2)cc1`, with -4.62%; and `O=C(CCC1CCCN(Cc2ccc3c(c2)CCO3)C1)NCc1ccc(F)c(F)c1` (stereo not shown), with -27.8%.
Then `CC(=O)N1CCc2cc(S(=O)(=O)CCC(=O)Nc3cc(C)cc(C)c3)ccc21`, with 8.33%.
`Cc1cc(C)cc(N(CCC(=O)Nc2nnc(C)s2)S(=O)(=O)c2ccc(Cl)cc2)c1`: the “hERG current change (%, negative = inhibition) at 1uM” value came to 11.3%.
For the compound `CCN(CC)c1ccc(N2C(=NC(=O)C3CCCO3)SC3CS(=O)(=O)CC32)cc1` (stereo not shown), the “hERG current change (%, negative = inhibition) at 1uM” value is 12.8%.
As to `Oc1ccc(Br)cc1/C=N/n1cnc2ccccc21`, the “hERG current change (%, negative = inhibition) at 1uM” value amounted to 12.6%.
Then `CCOc1ccccc1NC(=O)c1cc(S(=O)(=O)N2CCN(CC)CC2)ccc1Cl`, with 3.07%; and `Cc1ccc2c(c1)C(O)(CC(=O)c1cccc(-n3cccc3)c1)C(=O)N2` (stereo not shown), with 6.4%.
With `CN1CCN(Cc2cccc(Oc3ccc(Cl)cc3)c2)CC1`, the “hERG current change (%, negative = inhibition) at 1uM” value is reported as 0.0483%.
Then `O=C(NCCCN1CCCC1=O)c1ccc(NS(=O)(=O)c2ccccc2)cc1`, with 5.59%.
As to `Cn1nc(-c2ccccc2F)c2cc(C(=O)Nc3ccc4c(c3)OCCO4)sc21`, the “hERG current change (%, negative = inhibition) at 1uM” value was found to be 8.3%.
Consider `Cc1cccc(N2C(N)=NC(N)=NC23CCCCC3)c1.Cl`, for which the “hERG current change (%, negative = inhibition) at 1uM” value amounted to 2.48%.
Then `CC1(C)NC(=O)[C@H]2CCCN21`, with 15.6%; and `CCC(=Nc1ccccc1NC(C)=O)c1c(O)n(C)c(=O)n(C)c1=O`, with 2.93%; and `Cc1ccc(S(=O)(=O)N2CCN(C(=O)CC(C)n3nc(C)c(Cl)c3C)CC2)cc1C` (stereo not shown), with 22.1%.
Consider `CCc1nnc(NC(=O)CSc2ncnc3c2oc2ccccc23)s1`, for which the “hERG current change (%, negative = inhibition) at 1uM” value is listed as 9.59%.
Then `COC(=O)c1ccc(/C=N/n2c(C)nc3ccccc3c2=O)cc1`, with 9.05%; and `CC(C)C[C@H](N)c1nnc(S(=O)(=O)Cc2ccc(F)cc2)o1.Cl`, with 3.47%; and `COc1ccc(NC(=O)c2cc(-c3ccc4c(c3)OCO4)on2)cc1OC`, with -0.461%.
Then `CCCNC(=O)CCc1c(C)nc2nc(C)nn2c1C`, with 14%.
Take `COc1cc2c(cc1OC)C1=NC(=O)CN1C(SCc1ccc(C)cc1)=N2`: the “hERG current change (%, negative = inhibition) at 1uM” value was 14.3%.
Take `CCOc1ccc(-c2cc3nc(C4CCN(C(=O)OC(C)(C)C)CC4)c(C(=O)O)cn3n2)cc1`: the “hERG current change (%, negative = inhibition) at 1uM” value stood at 8.49%.
`O=C(Cc1cccc(C(F)(F)F)c1)NCc1ccc(Cl)cc1`: the “hERG current change (%, negative = inhibition) at 1uM” value was -6.63%.
Take `Cc1cc(C)n(CCCNC(=O)CN(C)S(=O)(=O)c2ccc(Cl)cc2)n1`: the “hERG current change (%, negative = inhibition) at 1uM” value amounted to 10%.
Regarding `CCOc1ccc(NS(=O)(=O)c2ccc(C)c(C(=O)NCCCn3ccnc3)c2)cc1`, the “hERG current change (%, negative = inhibition) at 1uM” value turned out to be 24.1%.
As for `CC(C)(C)NC(=S)NCCc1ccccc1`, the “hERG current change (%, negative = inhibition) at 1uM” value was 13.4%.
Then `COC(=O)CCCCNC(=O)Nc1ccccc1`, with 4%; and `O=[N+]([O-])c1ccc(OCC2CC(c3ccccc3)=NO2)cc1` (stereo not shown), with 10.3%.
Consider `NC(=S)Nc1ccc(F)c(F)c1F`, for which the “hERG current change (%, negative = inhibition) at 1uM” value is -1.98%.
Then `COc1ccc(C2=NN(c3nc4ccccc4s3)C(=O)C2)cc1`, with 2.46%; and `C/C=C(/C)C(=O)Nc1cccc(C2=NOC3(C2)C[C@@H](C(N)=O)N(C(=O)C2(C)CC2)C3)c1` (stereo partly shown), with 14.5%.
For the compound `O=C(CCN1C(=O)C2C3C=CC(C3)C2C1=O)N1CCN(c2cccc(Cl)c2)CC1` (stereo not shown), the “hERG current change (%, negative = inhibition) at 1uM” value is given as -5.32%.
`CCc1ccc(C(=O)COC(=O)CNC(=O)c2cccs2)cc1`: the “hERG current change (%, negative = inhibition) at 1uM” value is recorded as -1.09%.
On to `CCOc1ccc(NS(=O)(=O)c2cc(C(=O)N(CC)CC(=O)NCc3cccs3)ccc2C)cc1`, for which the “hERG current change (%, negative = inhibition) at 1uM” value was found to be 14.1%.
As to `Cc1ccc(-c2nc3ccccc3s2)cc1NC(=S)NC(=O)c1cccc2ccccc12`, the “hERG current change (%, negative = inhibition) at 1uM” value is -3.79%.
Take `COc1ccc(N2CCN(C3CCCN(C(=O)c4ccoc4)C3)CC2)cc1` (stereo not shown): the “hERG current change (%, negative = inhibition) at 1uM” value came out at 14.9%.
Regarding `Cc1ccc(CN2CCN(Cc3cc(=O)c4ccccc4[nH]3)CC2CCO)o1` (stereo not shown), the “hERG current change (%, negative = inhibition) at 1uM” value turned out to be 1.41%.
As for `Cc1cc(C)c(C(=O)OCC(=O)Nc2cccc(S(=O)(=O)N3CCCCC3)c2)c(C)c1`, the “hERG current change (%, negative = inhibition) at 1uM” value was 5.11%.
For the compound `Cc1cc(=O)oc2c3c(cc(OCC(=O)N[C@@H](Cc4ccccc4)C(=O)O)c12)OC(C)(C)CC3`, the “hERG current change (%, negative = inhibition) at 1uM” value is recorded as 5.14%.
With `CCCOc1ccc(N2C(=O)CC(N3CCC(C(=O)OCC)CC3)C2=O)cc1` (stereo not shown), the “hERG current change (%, negative = inhibition) at 1uM” value stood at 2.36%.
Consider `CCOC(=O)c1c(C)noc1-c1ccco1`, for which the “hERG current change (%, negative = inhibition) at 1uM” value amounted to 13.8%.
On to `Cc1c(C)n(CCc2ccccc2)c2ncnc(NCCCN(C)C)c12`, for which the “hERG current change (%, negative = inhibition) at 1uM” value is reported as -15.3%.
Take `O=C(O)CCc1ccc(-c2ccccc2)n1NC(=O)c1sc2ccccc2c1Cl`: the “hERG current change (%, negative = inhibition) at 1uM” value amounted to 5.29%.
With `CCNC(=O)COC(=O)/C=C/c1cccc(F)c1`, the “hERG current change (%, negative = inhibition) at 1uM” value is given as -1.08%.
Consider `O=C(COC(=O)/C=C/c1cccc([N+](=O)[O-])c1)NCCCN1CCCC1=O`, for which the “hERG current change (%, negative = inhibition) at 1uM” value was 7.23%.
As to `COC(=O)c1ccccc1N=C(SC)N(C)C`, the “hERG current change (%, negative = inhibition) at 1uM” value is listed as 10.3%.
In the case of `Cc1ccc(N2C(=O)CC3(CC4C=CC3C4)C2=O)cc1` (stereo not shown), the “hERG current change (%, negative = inhibition) at 1uM” value worked out at 2.71%.
On to `CC(C)C(=O)Nc1nnc(Cc2c[nH]c3ccccc23)s1`, for which the “hERG current change (%, negative = inhibition) at 1uM” value is 25%.
With `CN(C)S(=O)(=O)N1CCC(n2nccc2NC(=O)CCc2ccccc2)CC1`, the “hERG current change (%, negative = inhibition) at 1uM” value was found to be 10.4%.
In the case of `Cc1ccccc1-c1nc(C#N)c(N2CCCCC2)o1`, the “hERG current change (%, negative = inhibition) at 1uM” value was found to be 19.2%.
Then `O=C1NC[C@H](Cc2ccc(O)cc2)N(CCc2cccc3ccccc23)C1=O`, with 0.858%; and `CC1CC(C)CN(C(=O)CSc2ccsc2[N+](=O)[O-])C1` (stereo not shown), with 7.53%.
Turning to `O=S(=O)(Cc1ccc(Cl)cc1)Nc1ccc2c(c1)OCO2`, the “hERG current change (%, negative = inhibition) at 1uM” value was determined as 8.69%.
Turning to `CCC(=O)Nc1cc(-c2nnc(OC)c3ccccc23)ccc1N1CCOCC1`, the “hERG current change (%, negative = inhibition) at 1uM” value amounted to 7.12%.
Consider `COC(=O)c1cc(OC)c(OC)cc1NC(=S)NC(=O)c1ccco1`, for which the “hERG current change (%, negative = inhibition) at 1uM” value was 17.7%.
